The results in this text go back to ChEMBL document CHEMBL4888484, “Replenishing the malaria drug discovery pipeline: Screening and hit evaluation of the MMV Hit Generation Library 1 (HGL1) against asexual blood stage Plasmodium falciparum ,using a nano luciferase reporter read-out” (2022).

By % Inhibition is commonly meant the drop in the measured response relative to a control, in per cent.

The test relates to Plasmodium falciparum. Description: Primary screen in NF54 nanoGlo assay, in single point, at 2uM, 72h; a lower Z score goes with more inhibition. The class given is functional, Erythrocyte. Particulars: timepoint 72 hour.

Structures are written as SMILES. Several values for one entry are separate records, joined by “and”; a condition that tells them apart may be missing. Identical values can stand only once. Out of some 150,000 compounds screened, about 540 (0.36%) showed an effect of 50% or more. Some of the results follow.

Regarding `CCCc1ncncc1C(=O)N(C)[C@H]1CCN(C)C1`, the “% Inhibition” value is on record as 1% and the Z score was -0.15.
On to `Cc1cc(NC(=O)C(C)N2CCOC(c3nccs3)C2)no1` (stereo unspecified), for which the “% Inhibition” value stood at 7% and the Z score is reported as -1.18.
The like results for `Cc1noc(C2CC2)c1NS(=O)(=O)c1cnc2ccccn12` were, in that order, -13% and 1.46.
On the same counts, the results for `Cc1c(Cl)cccc1CNC(=O)[C@@H]1CC[C@H](C(=O)O)C1` are -6% and 1.35.
On the same counts, the results for `CC(C)(C)CNCc1ccc(C2OCCO2)cc1` are 6% and -0.87.
Consider `CCC(NC(=O)c1scnc1C)C(O)C(F)(F)F` (stereo unspecified), for which the “% Inhibition” value is -2% and the Z score is on record as 0.38.
On the same counts, the results for `Cc1cc(C)n(CC(=O)NCCc2ccccc2)c(=O)c1-c1nc(-c2ccc3c(c2)OCO3)no1` are -12% and 1.71.
On the same counts, the results for `CCn1ccc2c(CN3CCC4(CC3)COC(=O)O4)cccc21` are 5% and -0.97.
On the same counts, the results for `CCCN(CC#N)C(=O)Cc1c(Cl)cccc1Cl` are -7% and 0.71.
For `CCN1CC[C@@]2(CCC1=O)CN(Cc1cccc(OC(F)F)c1)CCN2C`, the “% Inhibition” value is given as -3% and the Z score worked out at 0.66.
The like results for `CCNC(=O)N1CC(C(=O)NCc2ccccc2F)CCC1c1ccccc1` (stereo unspecified) were, in that order, -16% and 1.61.
On the same counts, the results for `CN(C)S(=O)(=O)c1ccc(COc2ccccc2-n2ccnc2)o1` are 2% and -0.31.
The like results for `O=C(NC(c1ccc(F)cc1F)[C@H]1C[C@@H](O)C1)c1n[nH]cc1Cl` (stereo partly specified) were, in that order, 10% and -2.02.
On to `N#Cc1ccc(NC(=O)N2CCC[C@H](c3nnc4ccc(C(F)(F)F)cn34)C2)cc1`, for which the “% Inhibition” value is listed as -11% and the Z score was determined as 1.73.
The like results for `O=C(Nc1ccc(CCN2CCCC2)cc1)[C@H]1CCCC12OCCO2` were, in that order, -9% and 1.07.
The like results for `CC(C)c1cc(NC(c2nccn2C)c2nccn2C)n2ncnc2n1` were, in that order, -7% and 1.06.
On the same counts, the results for `Cc1ccc([C@@H](NC(=O)N2CCCC2)C(Cl)(Cl)Cl)cc1F` are -9% and 1.42.
In the case of `Cn1cccc1CN(Cc1cccs1)S(=O)(=O)c1cccs1`, the “% Inhibition” value worked out at 3% and the Z score is given as -0.45.
The like results for `CN(CC1(C)COC1)C(=O)Cc1ccc(F)cc1Cl` were, in that order, -5% and 0.8.
The like results for `Nc1c(-n2cnnn2)cc2c(c1Br)OCCO2` were, in that order, 2% and -0.32.
With `CCCCS(=O)(=O)N[C@H](c1nccn1C)C(C)C`, the “% Inhibition” value is listed as -13% and the Z score was found to be 1.66.
On to `O=C(Nc1ccccc1)C1CCN(C(=O)c2ccc(Cl)c(S(=O)(=O)NC3CC3)c2)CC1`, for which the “% Inhibition” value is listed as -38% and the Z score was 4.48.
For the molecule `Cc1ccccc1CC1(NC(=O)c2ccn(C(F)F)n2)CC1`, the “% Inhibition” value was determined as 5% and the Z score is on record as -0.67.
On the same counts, the results for `Cc1ccc(OCC(=O)N2CCC3(CCN(Cc4ccccc4)CC3)C2)c(C)c1` are -8% and 0.9.
On the same counts, the results for `O=C(NCC1CC1)c1ncc(Br)cc1Br` are -7% and 0.95.
On the same counts, the results for `Cc1ccc(C2CN(Cc3ccc(N(C)C)cc3)CC2CN(C(=O)C(C)C)C(C)C)cc1` (stereo unspecified) are 4% and -0.39.
On to `COCc1cnc(CN2CC[C@H](O)C23CCCC3)s1`, for which the “% Inhibition” value is given as -4% and the Z score was 0.43.
On the same counts, the results for `Cn1ccnc1CNC(=O)[C@@H]1CCc2cc(Br)ccc21` are -12% and 1.72.
The like results for `Cc1cc(C)nc(NC(=O)c2cc3n(n2)CCCO3)n1` were, in that order, -30% and 4.59.
On to `Cc1cccc(-c2noc(-c3sccc3S(=O)(=O)N(C)c3ccc(F)c(F)c3)n2)c1`, for which the “% Inhibition” value is recorded as -6% and the Z score was found to be 0.83.
On the same counts, the results for `NC(=O)NC(=O)C1CCC(NC(=O)c2cnn(-c3ccc(Br)cc3)c2)CC1` (stereo unspecified) are -2% and 0.34.
On the same counts, the results for `Cc1cccc(NC(=O)C(=O)NCCn2ccnc2C)n1` are 1% and -0.13.
On to `COc1ccc2c(c1)CN(C(=O)C1CC3CCC1C3)CC2` (stereo unspecified), for which the “% Inhibition” value turned out to be 38% and the Z score is listed as -1.16.
On the same counts, the results for `CC(C(=O)NCC1CCCN(C)C1c1cccs1)n1cccn1` (stereo unspecified) are 8% and -0.89.
Take `CNC(=O)Cc1csc(NC(=O)CCc2nc3ccccc3c(=O)[nH]2)n1`: under “2 µM”, the “% Inhibition” value was -18% and -16%; the Z score is 2.87 and 2.08.
Take `C=CC[C@@H](CO)NC(=O)COc1ccccc1C`: the “% Inhibition” value is reported as -2% and the Z score is on record as 0.41.
On the same counts, the results for `O=C1[C@@H]2C[C@H](O)CCN2C(=O)CN1CCc1ccccc1Cl` are -4% and 0.75.
On the same counts, the results for `Cc1ccc(-c2nc(N3CCCC[C@@H]3C)nc3ccccc23)cc1` are -8% and 1.25.
Take `Cc1ccccc1Nc1nc(N)nc(CN2CCCCCC2)n1`: the “% Inhibition” value is given as 12% and the Z score is -1.18.
The like results for `C[C@H]1CN(CC(F)(F)F)CCN(S(=O)(=O)CC2(C#N)CCCC2)C1` were, in that order, 32% and -3.63.
For `Cc1cccc(C)c1OC[C@@H](O)CNC(C)(C)CC(C)(C)C`, the “% Inhibition” value was determined as 31% and the Z score was -3.93.
On the same counts, the results for `O=C(COC[C@H]1CCCO1)N1CCN(c2cccc3[nH]cnc23)CC1` are 2% and -0.38.
Turning to `COCC(C)(C)C(=O)N1C[C@@H]2NC(=O)c3ccc(OC)c(c3)OCCn3cc(nn3)CO[C@H]2C1`, the “% Inhibition” value was -11% and the Z score came out at 2.16.
